In the RNAGym collection of RNA variant scans (doi:10.1093/nar/gkz1192):
The source gives no read counts; variants with many changes may rest on few reads.

B1: CPEB3 Ribozyme (parent)
chain: UAACAGGGGGCCACAGCAGAAGCGUUCACGUCGCAGCCCCUGUCAGAUUCUGGUGAAUCUGCGAAUUCUGCUGUAUAUCUC

Variants of: B1
Assay: self-cleavage, relative activity (ratio to wild type); higher = more cleavage; in vitro, sequencing
How it was run: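 Barcoded CPEB3 ribozyme mutants, produced by rounds of error-prone PCR, self-cleaved while being transcribed with T7 RNA polymerase for 5 hours at 37°C and during a subsequent 15 min DNase I step before EDTA was added. Sequencing of template-switched cDNA on Illumina gave cleaved and total reads, and DNA sequencing assigned barcodes to variants. Each variant's relative activity is its cleaved/total read fraction divided by the unmutated ribozyme's fraction, averaged across three batches. A variant needed a minimum of 5 reads.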

| Variant | self-cleavage |
| --- | --- |
| C29U A57C U67A | 0.13 |
| U31A A64C A75G | 0.06 |
| A28U U60C A64G | 0.24 |
| U31A U41C A56G A65G U67C | 0.16 |
| U31C U41C A45G U67C U78C | 0.11 |
| U31C A47G U49A A56G U60A | 0.14 |
| C29A U48C C50G A64G A77C | 0.06 |
| C29U U41C A65G | 0.27 |
| U31C A35G A45U A56U U72A | 0.18 |
| U31C U41C U69C | 0.43 |
| G30C C37U A45U | 0.18 |
| U31A C32A U51C A64U | 0.14 |
| A28G U51A A56G | 0.2 |
| A28U A35U G36A U43A U78C | 0.33 |
| A28U U49C U54C U72A | 0.11 |
| U31C C34U U80C | 0.43 |
| U31C A57G G73A U78C | 1.25 |
| U31C U41A A47G U78C | 0.19 |
| A28U C38A A45U | 0.1 |
| A28U A35G U78G | 1.28 |
| U31A C44A U58C U66C | 0.12 |

| Variant | self-cleavage |
| --- | --- |
| U31A U48C A65U | 0.16 |
| C29U U41C U49C U69C | 0.07 |
| A28G U43C U54C U69G | 0.18 |
| U31C A45C A47U U80C | 0.12 |
| U31C C38A C44G | 0.17 |
| U31C A45G U67C U78C | 0.28 |
| U31A G46A U54G U74C | 0.14 |
| A28U A45U U66C | 0.08 |
| U31C A64U U69C | 0.27 |
| U31C A65G C79G U80C | 0.39 |
| C29G A45U U48C U69A | 0.06 |
| C29G U49C U69C | 0.09 |
| A28U U41A U76A | 0.09 |
| G30A A45G U58G | 0.09 |
| A28G U48C G55C U58G U72G | 0.08 |
| G30C U48C U58A G70C | 0.09 |
| U31C A45G U67C U72C | 0.19 |
| A28U U31G A35G U69A U74C U78C | 0.54 |
| U31A U51A A64G U78C | 0.27 |
| G30A U48C U69C U74C | 0.13 |
| U31A A35U U54C A64U | 0.15 |

| Variant | self-cleavage |
| --- | --- |
| U31A A64G U78A | 0.42 |
| C29U A35U U43C G52U A57G U69A | 0.09 |
| A28U U43C G53A U69C | 0.13 |
| U31A C37U U51C U72C U74C | 0.27 |
| G30A A35U U49C | 0.1 |
| A28U U66C U69C U78C | 0.17 |
| U31A U43C A47G U80C | 0.2 |
| A28G U49C A77G | 0.22 |
| U31A A45G A57G U72A | 0.13 |
| U31C G33U U51A A56G U80C | 0.1 |
| A28G U49C U51C | 0.48 |
| A28G U43A U60A U72A | 0.16 |
| U31A A56U U76C U78C | 0.18 |
| C29A U49A U78C | 0.16 |
| A28G U41C A47G U54A | 0.26 |
| U31A U49C U51A C59A U67A U78C | 0.08 |
| A28U U49C G55C A65G U69G U78C U80G | 0.13 |
| A28G U41C U48C U54C | 0.18 |
| A28G U51A U58A C81G | 0.11 |
| C29U A56G U72C U78C | 0.33 |
| G30A C38A A65U | 0.13 |

| Variant | self-cleavage |
| --- | --- |
| U31A A45U A56G A57G U66C | 0.07 |
| C29A C39U U41A U80C | 0.25 |
| A28U A35U U41A C50A U54C U69G | 0.11 |
| G30A U31A C59U U78C | 0.06 |
| U31A U69G C81U | 0.24 |
| A28G U51C U69A | 0.42 |
| G30U A45G U67A | 0.13 |
| U31C A64U U78C | 0.17 |
| U31A G36A A75U | 0.17 |
| A28G U48C U60A | 0.12 |
| U31C C40U A45U U51A | 0.06 |
| C29U C34U U43C U48C U78A | 0.11 |
| U31C A35U A57U | 0.14 |
| A28U G33C A47C | 0.15 |
| G30A U49C U51C U74C | 0.21 |
| C29G A45G U78C | 0.15 |
| C29G U31A C40U U41A A47G U58C U72C | 0.07 |
| C29U A45C A47G | 0.18 |
| A28G U43G G52U | 0.14 |
| C29U A35G A45U U69C | 0.23 |
